From PubChem BioAssay (NCATS)
This is one part of the list. These are further read-outs of the screen, such as a control signal, another cell line or another target. No call is given for them. The note in brackets gives the kind of curve behind each potency; many fits are weak.

Test: qHTS drug screen for cell cycle checkpoint inhibitors in PARPi-resistant BRCA-mutant ovarian cancer cell lines. (AID 1963452)
Conditions: PEO1/OlaR viability, CellTiter-Glo luminescence, 96 h
Outline: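 PEO1, PEO4 and PEO1/OlaR ovarian cancer cells, 600 per well, exposed 96 h at 37C to a dilution series. Viability read by CellTiter-Glo luminescence, normalized to DMSO and empty wells; activity summarized as Z-AUC.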

[1] = measured here: PEO1 parental viability
Tags tell the direction and shape of the fitted curve.

Row | Compound | AC50 [1] | AC50 (measured here: PEO4 viability)
1 | Cc1cc(C(=O)NOCCO)c(Nc2ccc(I)cc2F)n(C)c1=O | 0.138 µM [falling, full curve] | 0.049 µM [falling, full curve]
2 | Cc1ccc(S(=O)(=O)Nc2cc(-c3ccc(C#N)s3)ccc2C)cc1 | 0.049 µM [falling, full curve] | 0.0436 µM [falling, full curve]
3 | Cn1cc(C2=C(c3cn(C)c4cc([N+](=O)[O-])ccc34)C(=O)NC2=O)c2ccccc21 | 7.76 µM [falling, partial curve] | 15.5 µM [falling, partial curve]
4 | C1=C/COCc2cc(ccc2OCCN2CCCC2)Nc2nccc(n2)-c2cccc(c2)COC/1 | 5.49 µM [falling, full curve] | 15.5 µM [falling, partial curve, poor fit]
5 | CCN(C(=O)c1c(O)c2c(Cl)cccc2n(C)c1=O)c1ccccc1 | 9.77 µM [falling, partial curve, poor fit] | 4.9 µM [falling, partial curve]
6 | Cn1cc(-c2cc(Oc3cc(F)c(NC(=O)C4(C(=O)Nc5ccccc5)CC4)cc3F)ccn2)cn1 | 15.5 µM [falling, partial curve] | 17.4 µM [falling, partial curve]
7 | Cc1c(C(=O)N2CCOc3ccc(-c4ccc(N)nc4)cc3C2)ccc(S(C)(=O)=O)c1F | 13.8 µM [falling, partial curve, poor fit] | 8.71 µM [falling, partial curve]
